# From the supplement of paper PMC7826260
# This is one part of the list. Viral Rep nickase domains cut single-stranded DNA in vitro at 3 µM enzyme and 37 °C for 1 h; the strands have 90 letters, of which the middle is given. A value is the log2 ratio of uncut reads to the pool without enzyme; uncut sequences lie near 0, cut ones below; no hit call is given. Reads are scaled to the total; where an enzyme cuts many sequences, the uncut ones exceed 0.
# Key:
# Assay in all cases: uncleaved DNA left, log2 of reads against the no-enzyme library (log2 ratio); higher = less cleavage (more negative = more Rep cleavage of the k-mer); sequences stand for … in CTCGTCCG…ACCGGAGA
# [1] = system: T1, Rep nickase domain of Muscovy duck circovirus
# T1 sequence (Rep 1-111, printed without the tag): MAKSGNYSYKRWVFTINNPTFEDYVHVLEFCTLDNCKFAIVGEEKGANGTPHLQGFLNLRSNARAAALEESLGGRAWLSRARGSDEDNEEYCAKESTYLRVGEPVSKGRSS
# Protocol: (§1)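 A pool of 90-nt single-stranded DNAs with seven random bases just before the constant AC of the nick site (name = the seven bases) was cut by 3 µM recombinant His6-SUMO-tagged Rep nickase domain (300 nM DNA, 50 mM HEPES pH 8.0, 50 mM NaCl, 1 mM MnCl2, 1 h, 37 °C, three replicates). Uncut DNA was amplified and sequenced.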
# [2] = system: T2, Rep nickase domain of banana bunchy top virus
# T2 sequence (Rep 1-94, printed without the tag): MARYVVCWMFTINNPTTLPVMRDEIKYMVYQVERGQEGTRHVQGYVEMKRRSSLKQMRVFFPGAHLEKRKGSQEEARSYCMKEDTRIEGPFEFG
# Protocol: as §1
# [3] = system: T3, Rep nickase domain of cabbage leaf curl virus
# T3 sequence (Rep 1-116, printed without the tag): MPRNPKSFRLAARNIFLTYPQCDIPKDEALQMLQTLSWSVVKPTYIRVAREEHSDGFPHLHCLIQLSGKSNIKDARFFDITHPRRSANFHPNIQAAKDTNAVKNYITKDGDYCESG
# Protocol: as §1
# [4] = system: T4, Rep nickase domain of chickpea chlorotic dwarf virus
# T4 sequence (Rep 1-124, printed without the tag): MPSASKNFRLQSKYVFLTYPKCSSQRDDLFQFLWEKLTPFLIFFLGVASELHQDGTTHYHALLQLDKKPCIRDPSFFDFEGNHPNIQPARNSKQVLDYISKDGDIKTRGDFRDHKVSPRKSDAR
# Protocol: as §1
# [5] = system: T5, Rep nickase domain of faba bean necrotic yellows virus
# T5 sequence (Rep 1-98, printed without the tag): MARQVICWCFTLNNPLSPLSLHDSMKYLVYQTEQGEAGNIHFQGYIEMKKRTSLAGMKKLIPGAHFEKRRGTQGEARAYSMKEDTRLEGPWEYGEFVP
# Protocol: as §1
# [6] = system: T6, Rep nickase domain of maize striate mosaic virus
# T6 sequence (Rep 1-117, printed without the tag): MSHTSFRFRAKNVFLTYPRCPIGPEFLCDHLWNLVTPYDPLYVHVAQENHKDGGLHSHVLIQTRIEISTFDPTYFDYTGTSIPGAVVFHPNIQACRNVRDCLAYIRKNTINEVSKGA
# Protocol: as §1
# [7] = system: T7, Rep nickase domain of porcine circovirus 2
# T7 sequence (Rep 2-116, printed without the tag): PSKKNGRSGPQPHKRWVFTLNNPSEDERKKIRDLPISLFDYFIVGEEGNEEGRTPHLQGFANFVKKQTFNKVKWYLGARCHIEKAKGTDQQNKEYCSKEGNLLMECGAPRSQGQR
# Protocol: as §1
# [8] = system: T8, Rep nickase domain of tomato golden mosaic virus
# T8 sequence (Rep 1-124, printed without the tag): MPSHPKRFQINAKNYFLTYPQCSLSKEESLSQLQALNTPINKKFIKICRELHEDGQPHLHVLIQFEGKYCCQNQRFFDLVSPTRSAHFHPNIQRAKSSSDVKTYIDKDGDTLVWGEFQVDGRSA
# Protocol: as §1
# [9] = system: T9, Rep nickase domain of tomato yellow leaf curl virus
# T9 sequence (Rep 1-136, printed without the tag): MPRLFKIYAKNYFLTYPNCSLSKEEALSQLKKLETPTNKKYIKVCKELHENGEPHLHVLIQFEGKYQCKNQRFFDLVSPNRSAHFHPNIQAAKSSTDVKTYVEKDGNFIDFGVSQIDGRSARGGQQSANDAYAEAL
# Protocol: as §1
# [10] = system: T10, Rep nickase domain of wheat dwarf virus
# T10 sequence (Rep 1-137, printed without the tag): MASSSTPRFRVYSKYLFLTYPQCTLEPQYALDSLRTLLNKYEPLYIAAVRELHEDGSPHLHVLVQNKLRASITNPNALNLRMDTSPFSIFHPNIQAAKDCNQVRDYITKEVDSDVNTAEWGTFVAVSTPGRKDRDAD
# Protocol: as §1
Sequence,uncleaved DNA left (log2) [1],uncleaved DNA left (log2) [2],uncleaved DNA left (log2) [3],uncleaved DNA left (log2) [4],uncleaved DNA left (log2) [5],uncleaved DNA left (log2) [6],uncleaved DNA left (log2) [7],uncleaved DNA left (log2) [8],uncleaved DNA left (log2) [9],uncleaved DNA left (log2) [10]
AGGATCT,0.106,0.0402,0.265,0.0758,-0.00883,1.1,-0.0299,0.00768,0.0427,0.00842
ACCTGTA,-0.146,-0.0356,-0.383,-0.782,-0.103,-0.728,-0.322,-0.104,-0.0977,-0.187
TAAATAA,-0.00886,-0.0433,-0.838,-2.49,-0.0529,-0.701,0.0244,-0.0521,-0.0552,-0.378
ACCTTGT,-0.0637,0.0419,-0.68,-0.728,-0.0111,-1.23,-0.413,0.0569,-0.00543,-0.199
AAGAGAG,0.0427,-0.00201,-0.241,0.159,0.0631,-0.667,0.206,-0.000505,0.0393,-0.017
CAATCGC,-0.0116,0.014,-1.39,-1.59,0.000952,-1.32,0.0758,-0.188,0.114,-0.138
TCTCTAA,0.0255,-0.0725,0.085,-0.278,0.0286,-0.338,0.0359,-0.0207,-0.111,0.0215
GAGTAAG,0.0879,0.0733,-0.57,-0.516,0.0885,-0.827,-0.0323,0.093,0.0749,-0.0154
GTCTCTG,-0.0124,0.0564,0.301,0.729,0.0177,1.73,0.126,0.149,-0.0116,0.0391
TTTGTGC,-0.0127,-0.167,-0.954,-0.513,-0.103,-1.15,0.0418,-0.212,-0.0431,-0.0909
ATGTTGT,0.0478,-0.0504,-0.179,-0.476,0.149,-0.755,-2.33,0.0566,-0.055,-0.0196
ACAGCCT,-0.117,-0.0909,-0.5,-2.16,-0.0519,-0.845,-0.0358,-0.0664,-0.18,-0.222
CCGCCCA,-0.239,-0.0483,-0.0358,-0.693,-0.0878,-0.517,-0.287,-0.0773,-0.139,-0.125
TACCGAG,0.21,0.0646,0.576,1.17,0.208,0.405,0.162,0.0962,0.104,0.23
GCTATGC,0.097,0.0384,-0.374,-0.132,0.0823,-0.881,0.136,0.00976,0.0251,-0.0515
AAAAATC,0.0096,-0.0595,-0.313,-0.795,0.0231,-0.767,-0.0587,-0.0271,-0.0352,-0.0546
ACCCTGG,0.16,0.0786,-0.53,-0.443,0.0898,-0.971,0.268,0.025,0.105,0.0363
AGCGGAT,0.0751,0.209,0.326,1.53,0.139,1.89,0.294,0.213,-0.061,0.0681
GAGGAAC,-0.0924,-0.106,0.441,1.43,-0.118,1.78,0.0503,-0.137,-0.00326,0.0947
TAGCAGC,0.0597,-0.0357,-0.382,-0.514,-0.0811,-1.04,0.0217,-0.149,-0.0847,-0.11

Sequence,uncleaved DNA left (log2) [1],uncleaved DNA left (log2) [2],uncleaved DNA left (log2) [3],uncleaved DNA left (log2) [4],uncleaved DNA left (log2) [5],uncleaved DNA left (log2) [6],uncleaved DNA left (log2) [7],uncleaved DNA left (log2) [8],uncleaved DNA left (log2) [9],uncleaved DNA left (log2) [10]
GAATATA,-0.109,0.0657,-0.0995,-1.57,0.0502,0.893,-0.663,0.0592,0.0231,0.00697
GCAATTT,-0.0862,-0.0427,-0.115,-1.65,-0.00564,-0.341,-0.0694,-0.0744,-0.0166,-0.139
GACCCCA,0.000401,0.0556,0.706,0.815,-0.0713,1.66,-0.0492,0.0335,-0.0015,0.148
AACGCTC,0.0982,0.018,0.0954,-0.208,0.0328,0.346,0.118,0.0615,0.0328,0.00179
TAGGATA,0.0799,-0.00415,0.225,0.872,0.0266,1.5,0.109,0.155,-0.0627,0.0794
GTTGCTC,-0.00252,0.0364,0.0575,0.34,-0.0575,0.152,0.0837,-0.0699,-0.0334,-0.0931
ACCATAG,-0.0388,0.132,-0.0549,1.1,0.0183,0.334,0.261,-0.0545,0.113,-0.0986
CTTTTGG,-0.0223,0.0307,-0.224,-0.185,0.0852,-0.768,0.0588,0.0147,0.0493,-0.0364
TCGAAGG,0.0241,-0.0239,0.299,0.973,0.118,1.15,0.00216,-0.0332,-0.133,0.0601
CCCCTTG,0.00999,-0.125,-0.714,-1.57,0.00596,-1.09,-0.23,-0.148,-0.259,-0.234
CCGCTGT,-0.0198,0.101,0.536,1.8,0.0782,1.7,0.059,0.165,-0.0305,-0.064
GGCTTAA,0.138,0.146,0.443,0.931,0.107,1.59,0.0137,0.123,0.0977,0.0422
CTAAGCC,0.0726,-0.00468,-2.73,-2.47,0.138,-1.67,0.0851,-0.499,0.016,-1.01
AACTGGA,0.0191,0.112,0.0326,0.27,-0.0568,0.251,-1.03,0.107,-0.127,-0.0102
CACAAGA,-0.0139,0.000358,-0.00332,-0.373,-0.0367,-1.07,0.139,0.00904,-0.0685,0.00936
GAGTTTT,-2.49,-2.52,-0.073,-1.92,-2.64,1.16,-3.43,-0.0527,0.151,-0.0219
CTGTTAA,-0.0234,0.0342,-0.153,-0.384,-0.0586,-0.548,0.00979,-0.103,0.0102,-0.0762
TTGCGTT,-0.00898,-0.088,-0.803,0.0998,0.139,-0.586,0.0161,-0.0729,-0.0219,-0.22
CTGACTA,0.0885,0.0504,-0.102,0.0224,0.0527,0.14,-0.016,-0.0382,0.0722,0.0918
ACTTGGG,0.109,0.144,-0.48,0.295,0.0847,-0.367,0.203,0.0638,0.243,0.0195

Sequence,uncleaved DNA left (log2) [1],uncleaved DNA left (log2) [2],uncleaved DNA left (log2) [3],uncleaved DNA left (log2) [4],uncleaved DNA left (log2) [5],uncleaved DNA left (log2) [6],uncleaved DNA left (log2) [7],uncleaved DNA left (log2) [8],uncleaved DNA left (log2) [9],uncleaved DNA left (log2) [10]
TATTCAT,-3.65,-2.5,0.102,-1.02,-0.0365,0.629,-3.69,-0.0484,0.0193,0.0914
GTTACCC,-0.0207,0.0968,0.281,0.296,-0.0513,1.4,-0.223,0.0139,0.125,0.0497
CTCTCCC,-0.223,-0.184,0.0212,-0.206,-0.051,0.302,-0.113,-0.215,-0.0722,-0.0359
GGGTTGC,0.0236,-0.0119,0.596,1.45,0.0634,1.51,0.221,0.0685,0.05,0.0172
AGTAAAC,0.0295,0.0523,0.146,0.0526,0.0673,-0.338,0.0729,0.0428,0.059,0.0834
GTTCCGT,0.0451,0.0782,0.302,0.751,0.0476,1.08,0.138,0.0417,0.141,0.169
ATAATCA,0.00791,0.0844,0.313,-0.904,0.0731,-0.397,0.0296,0.00356,0.0966,0.176
GAGATTC,-0.00713,0.0205,0.423,1.09,0.0739,1.25,-0.0321,0.0623,0.00138,0.138
CGCGAGC,0.00527,0.0776,0.111,0.553,0.0164,0.0535,0.0083,0.0509,-0.137,-0.091
AAATACG,-0.0514,-0.0577,-0.789,-0.00886,-0.0103,-0.905,0.173,-0.0191,-0.0466,-0.124
TACGGCA,0.142,-0.0539,-0.141,-0.995,-0.162,-0.683,-0.585,-0.0535,0.0241,-0.0158
GTTCGCC,0.00832,0.00302,0.215,0.699,-0.122,0.935,-0.0944,0.0199,-0.019,-0.0604
GACCCCC,-0.129,-0.0211,0.436,0.669,0.0313,1.01,-0.29,-0.283,-0.0904,-0.0589
GGTCTAT,-0.00399,0.0584,0.597,1.36,0.102,1.99,0.0356,0.011,-0.00601,0.156
TAAGAGG,0.126,0.0653,0.346,0.902,-0.0474,0.802,0.113,0.156,-0.0525,0.171
GCATCGT,0.0168,0.0288,-0.41,-0.534,0.0141,-0.921,0.00233,0.0749,0.0789,-0.0434
CCGACGA,-0.015,0.0171,0.0383,0.225,-0.0863,-0.147,0.0902,-0.000411,-0.082,-0.0918
TTTAAAC,-0.00426,-0.0504,0.191,-0.154,-0.0709,-0.239,0.0113,0.0238,-0.0569,-0.00157
